According to article PMC6212790:
The other results are listed elsewhere or left out. At the low end of the ranking, values are background and their order means little.

Target: T1, GST-Rok-C97-191 (UniProt O34857)
T1 sequence: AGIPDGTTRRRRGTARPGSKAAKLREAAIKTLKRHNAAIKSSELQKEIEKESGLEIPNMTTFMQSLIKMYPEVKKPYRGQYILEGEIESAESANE
Experiment: protein binding microarray;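 note: rank score from −0.5 (least bound) to 0.5 (best bound)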
Conditions: Rok is a gene silencer of Bacillus subtilis; high values mean tight binding; most listed sequences are background and not binding sites; double strand, one strand shown

| Sequence | binding signal |
| --- | --- |
| AGCGGCAC | -0.177 E-score |
| CGAGTAGA | 0.088 E-score |
| GCAGCAGC | -0.113 E-score |
| GAGGTACC | 0.0341 E-score |
| ATCCACAT | 0.133 E-score |
| ATATCGAG | 0.151 E-score |
| CCAGTGCG | -0.209 E-score |
| AAGGGTAC | -0.0501 E-score |
| ACCTAGTA | 0.233 E-score |
| CCAACGGA | -0.0787 E-score |
| GGGGCACA | -0.127 E-score |
| CGCAGCGA | -0.0248 E-score |
| ATTCTGGA | 0.0571 E-score |
| AAAAACTA | 0.426 E-score |
| CTCATGAA | -0.000469 E-score |
| ACTCATAT | 0.101 E-score |
| ATTGGCAG | -0.0782 E-score |
| GTGTCCTA | 0.0387 E-score |
| GAGCGTGC | -0.274 E-score |
| AGAGCGTA | 0.0391 E-score |
| CGTAATTC | 0.175 E-score |
| ATGGGCCG | -0.214 E-score |
| AGCCATTC | -0.0428 E-score |
| AGCGACCT | 0.06 E-score |
| GAGTGCAC | -0.109 E-score |

| Sequence | binding signal |
| --- | --- |
| CGATGCCC | -0.156 E-score |
| AACATCTT | 0.0861 E-score |
| CTCGCATC | -0.126 E-score |
| AAGCCGAC | 0.0531 E-score |
| ACTTAAAT | 0.175 E-score |
| ATTCAAAA | 0.126 E-score |
| GATAGGAC | -0.0509 E-score |
| TGCTTCAA | -0.233 E-score |
| AATAGTGC | 0.111 E-score |
| ACATCGCG | 0.139 E-score |
| GCTTAGAC | -0.113 E-score |
| ACCCCAAG | 0.00587 E-score |
| GATCGTCC | -0.213 E-score |
| GAGACTAC | 0.0702 E-score |
| GTTCGATA | 0.148 E-score |
| CGAACATC | -0.0576 E-score |
| AACTGATA | 0.317 E-score |
| GTATATGA | 0.224 E-score |
| CCCTACCG | 0.00127 E-score |
| AGATCAAG | 0.0327 E-score |
| CCTTAACA | -0.086 E-score |
| AAGATCTA | 0.288 E-score |
| TAACTGAA | 0.17 E-score |
| AATGCGTA | 0.0342 E-score |
| CTCCAGAC | -0.108 E-score |

| Sequence | binding signal |
| --- | --- |
| CCTGGAAC | -0.0442 E-score |
| GAAGTATA | 0.164 E-score |
| AGCTGTTG | 0.0786 E-score |
| CGTATGCC | -0.193 E-score |
| ACCAAGGA | -0.216 E-score |
| CCGACTCC | -0.339 E-score |
| GACTACTA | 0.373 E-score |
| ACCGTATC | 0.121 E-score |
| CCGTCTTA | -0.161 E-score |
| AAAGTGTA | 0.243 E-score |
| ACGCTACG | 0.142 E-score |
| CTACCGGA | 0.0979 E-score |
| ATGGATGG | -7.41e-05 E-score |
| ATATTCTA | 0.408 E-score |
| CTATCCTA | 0.0657 E-score |
| CTTTCACA | -0.0251 E-score |
| AGCCAGGA | -0.159 E-score |
| GTGATTAA | 0.0493 E-score |
| AAAGGTGA | 0.0402 E-score |
| CATAACGA | 0.133 E-score |
| CTATGATC | 0.219 E-score |
| GACCGTCA | -0.108 E-score |
| AACGGATG | 0.133 E-score |
| ACACTGAT | -0.0431 E-score |
| ATGCCCCC | -0.27 E-score |

| Sequence | binding signal |
| --- | --- |
| ACCTGGAG | -0.164 E-score |
| AGCATAGC | -0.109 E-score |
| CATACTGA | -0.0594 E-score |
| CAAACATG | 0.0951 E-score |
| AGTCGGGG | -0.16 E-score |
| AATTCCCG | 0.0513 E-score |
| ACCTCAGC | 0.0237 E-score |
| AACCAGTC | -0.123 E-score |
| CTGCTCCA | -0.00585 E-score |
| ACGGGACA | -0.0769 E-score |
| CAATTGTG | 0.0188 E-score |
| ACAGTCCT | -0.0757 E-score |
| GTGAAAAA | -0.0347 E-score |
| ACGTTATG | -0.0294 E-score |
| CTCGGTCC | -0.325 E-score |
| ACGCCCCT | -0.4 E-score |
| GACCAATC | -0.0956 E-score |
| CGGCGCCA | -0.118 E-score |
| GAACTCAA | -0.0625 E-score |
| ATACGCTG | -0.171 E-score |
| AAGGAGTG | -0.112 E-score |
| CGTTGGAC | -0.234 E-score |
| ACCGCACG | -0.0493 E-score |
| GGATGACC | 0.015 E-score |
| GACACTCC | -0.0753 E-score |

| Sequence | binding signal |
| --- | --- |
| TTACTCAA | -0.00125 E-score |
| CTTGAATC | -0.0481 E-score |
| AAACGATG | -0.09 E-score |
| ATTTTCCA | 0.105 E-score |
| GGTTATAC | 0.149 E-score |
| CCACCCAG | -0.077 E-score |
| GATGAGCA | -0.0926 E-score |
| GTCCTGAA | -0.091 E-score |
| ACATTTGG | 0.0911 E-score |
| AACTGGAG | -0.0792 E-score |
| CTCGAGAA | -0.0447 E-score |
| TCGAGTCA | -0.0547 E-score |
| ACACCCCC | -0.185 E-score |
| CCGTGACG | -0.0651 E-score |
| GACTGGGC | -0.357 E-score |
| GCATCACC | -0.18 E-score |
| GGTATAAC | 0.266 E-score |
| ATAAAGTC | -0.00083 E-score |
| CTACTAGC | 0.256 E-score |
| ATAGGCTG | -0.0725 E-score |
| GCTTAAGA | -0.117 E-score |
| ACCTCTGA | -0.0286 E-score |
| CGGGTACA | 0.0353 E-score |
| AACTCAGG | 0.021 E-score |
| ATACCGGA | 0.0662 E-score |

| Sequence | binding signal |
| --- | --- |
| CTACATCC | 0.113 E-score |
| GACCTGTA | -0.217 E-score |
| CTCATCCC | -0.256 E-score |
| ACGAAAAT | 0.165 E-score |
| ACCCACCG | -0.244 E-score |
| ACAAGAGG | -0.0755 E-score |
| ACTACCCC | 0.242 E-score |
| ATTAAAAT | 0.218 E-score |
| AGTCTCAG | -0.27 E-score |
| ATCACGAA | 0.0788 E-score |
| CCCCTCAG | -0.312 E-score |
| CGTTACGA | 0.0443 E-score |
| ATCCGTTC | 0.0593 E-score |
| TAGCGCCA | 0.0762 E-score |
| TCCGACAA | -0.152 E-score |
| ACCCGGCA | -0.187 E-score |
| ATACCACC | 0.165 E-score |
| TATCAGCA | -0.0684 E-score |
| TGACCGAA | 0.102 E-score |
| CAGGGAAC | -0.0657 E-score |
| ATTCTCCC | -0.0584 E-score |
| CCTGCACA | -0.264 E-score |
| TAGGGTCA | -0.0723 E-score |
| GATCTGTA | -0.0473 E-score |
| CCCCGGGG | -0.386 E-score |

| Sequence | binding signal |
| --- | --- |
| CTCCATTA | 0.109 E-score |
| AACAATTA | 0.24 E-score |
| ACGGGTTG | -0.288 E-score |
| CGCAGGAG | 0.124 E-score |
| ACTCTTAC | 0.0509 E-score |
| GGCTCTTA | -0.292 E-score |
| CGGGTCAG | -0.174 E-score |
| CAGAGGGA | -0.195 E-score |
| GTCGCAGA | -0.0549 E-score |
| AAAAATAC | 0.32 E-score |
| CTACGCCC | -0.233 E-score |
| CCCCAAGA | -0.151 E-score |
| AGGTTGCA | -0.137 E-score |
| CGCTGGCC | -0.363 E-score |
| ACTAACGC | 0.065 E-score |
| GATAACCA | -0.0375 E-score |
| GGAATGCC | -0.207 E-score |
| AGAGTGCA | -0.0621 E-score |
| GTAACCTA | 0.00577 E-score |
| GTCCGTAA | 0.0323 E-score |
| AATTAGAT | 0.314 E-score |
| GCGCCGGA | -0.0972 E-score |
